± gives the standard deviation of the averaged measurements. The list shows a part of the results.
These sequences were tested on PfAP2-EXP AP2 domain (GST-tagged) (assay: gcPBM binding intensity (ln(normalized median fluorescence intensity)); higher = stronger DNA binding).
Outline: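 GST-fused DNA-binding domains of P. falciparum, expressed in E. coli, were applied at about 25 μg on average for 1 h to an Agilent 4 × 180k array of primer-extended double-stranded 36-bp intergenic genomic probes and negative controls. Binding intensity is the highest Masliner-normalised natural-log median intensity across replicate spots of either probe orientation, measured with Alexa488 anti-GST antibody and a 488 nm scan.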

| Sequence | gcPBM binding intensity (ln) |
| --- | --- |
| CATGCAATATTAAACACACACTCATATAGCACAATA [CACACA_site6182] | 8.79 ± 0.092 |
| CCAACAAAAATAAGCACACACAAATATACATACATA [CACACA_site3606] | 8.84 ± 0.54 |
| ACAGTATCTGGTAGCTGTACGGATTGTAGAGAGTAG [XGTACX_site4872] | 9.07 ± 0.49 |
| AGAATAATAAAATGGGTGCAATAGTTTTTTTTTTTT [GTGCAC_site9823] | 8.59 ± 0.13 |
| TTGGATTTTCCATAATGTACACATAAAAGTGTTACA [XGTACX_site4544] | 8.185 ± 0.078 |
| TTTTAAAAAATATAATATAATATAATATAAAATAAA [CACACA_negctrl_site154] | 8.12 ± 0.32 |
| TAAGTATAAATATTTACACACATTTGTTTTTTTTTA [CACACA_site7731] | 8.35 ± 0.54 |
| ATGTAAAACATAAAATGTACATATTATACAAACTAT [XGTACX_site5797] | 8.86 ± 0.42 |
| AATAAAATAATAAAAGCACACAAGAATACAGACAAA [CACACA_site112] | 9.16 ± 0.37 |
| GGATAATATATTAGAACACACATATATCTGTAAAAA [CACACA_site4266] | 8.54 ± 0.59 |
| TAATATAATATATGCACACAAATATGTATATATGTG [CACACA_site2134] | 8.23 ± 0.2 |
| CACAAAATAAATTAAACACACAACATCAGATATGTA [CACACA_site6529] | 8.39 ± 0.47 |
| TAATATACATAATAATGTACATATTTTCATATATAC [XGTACX_site6913] | 8.23 ± 0.38 |
| AACTATTTTATTATATGTACTTACGAATTTATAAAA [XGTACX_site5262] | 8.44 ± 0.4 |
| AATGTAGGTTTATTTACACACAAATATAAATATATA [CACACA_site1523] | 8.25 ± 0.33 |
| TGTGTTGTAACAAAATGTACGAGCTTGATGTAGAAT [XGTACX_site2293] | 9.05 ± 0.61 |
| ATAAACTGATGTGTATGTACACATGTAATAATAAAT [XGTACX_site7649] | 8.68 ± 0.39 |
| TATTTTTCTTTATTGGTACACACGAAAAAAAAATTG [CACACA_site3054] | 8.47 ± 0.28 |
| AAAATCCAGTTTTCAAAATTGAACAAAAAAAAAATA [GTGCAC_negctrl_site542] | 8.39 ± 0.55 |
| TCTAAGTATAAAGACACACAGAATAAAAAAAAATAT [CACACA_site2367] | 8.7 ± 0.52 |
| AAAAAAAAATTTAAGTGTACATTCCATTTTAGTTTA [XGTACX_site5286] | 8.16 ± 0.38 |
| AAAATATATATGTATGTTTATATGTTTATATATATT [XGTACX_negctrl_site337] | 8.18 ± 0.49 |
| AAGAAGCATAAATGTACACACATATTTATATATCAA [CACACA_site6743] | 8.37 ± 0.38 |

| Sequence | gcPBM binding intensity (ln) |
| --- | --- |
| TATTTAATATATTTATGTACATATTTATTTATTATT [XGTACX_site524] | 8.56 ± 0.31 |
| CAACACTTATTGAAACGTACGCATATAGTTTCTTTT [XGTACX_site8960] | 8.59 ± 0.31 |
| AAAGGATATGGACACACACACACATATATATATATA [CACACA_site8686] | 10 ± 0.42 |
| TTTATTTATATTTATACACACAAACATAATACTACT [CACACA_site7039] | 8.51 ± 0.4 |
| ATATATTTTTTAAACACACACATAAATATTTGTGTA [CACACA_site2879] | 8.47 ± 0.35 |
| ATATACTTACATATTACACACAATATTTTTAAATGT [CACACA_site3627] | 8.55 ± 0.32 |
| AAGGGAATATACCTTACACACAAAAATGCAGATATA [CACACA_site1451] | 8.58 ± 0.45 |
| TTTTTTTTGGTTTTCATGCACACAATTTATAAATCT [CACACA_site3107] | 8.94 ± 0.36 |
| AAAGTAAAAAAAAAAACATGCACATATTTACTTTAT [TGCATGCA_site849] | 9.07 ± 0.4 |
| CTAATCAAAATAAATTAACACACAATTTTAATATTG [CACACA_site7887] | 8.05 ± 0.48 |
| ATTCTATACATATATATACACACGTAGTTTCTATTT [CACACA_site2223] | 8.61 ± 0.37 |
| AAAAAAAAAAAGAAGGAAACATTTGACCAAAAATAT [GTGCAC_negctrl_site404] | 8.73 ± 0.58 |
| GTTAATATACTTAATACACACACGAATATATATAAA [CACACA_site1181] | 8.69 ± 0.35 |
| TAACATTATATATATTGTACATAGTAAATATTATAT [XGTACX_site5421] | 8.23 ± 0.47 |
| TGTAATCTGGAGAAAAGTACACAGTATCTGGTAGCT [XGTACX_site2039] | 8.53 ± 0.34 |
| ATTTAAATTATAAAATGTACATTTAACAAATTTTAT [XGTACX_site770] | 8.34 ± 0.4 |
| TTTAATTATTAAATGGTGCACTTGAAATATAAAAAT | 9.63 ± 0.73 |
| CTTTTAATGGTGTAAAGTACTTTCTTAAGGTTCAAA [XGTACX_site8423] | 8.55 ± 0.33 |
| AAGTTATATAAAGGAACACACATTTGATTTTATTTT [CACACA_site6814] | 8.34 ± 0.47 |
| ATATATGGGGCGCAGGAAAAGAGTTTTGGAAATAAA [CACACA_negctrl_site1265] | 9.08 ± 0.49 |
| TATACAACGTTAAGCACACACAAAAAAAATTTAATA [CACACA_site3086] | 8.7 ± 0.49 |
| ATAAAACATAAAAATCGTACAAAGGAGGATATAAGG [XGTACX_site420] | 9.14 ± 0.56 |

— the supplement of paper PMC11417369
